Screen size: about 360,000 compounds; about 6,000 (1.7%) were called active. Inconclusive results, whose numbers are uncertain, are shown with a selection of clear calls. Calls follow the shape of the dose curve; as a rule, active = well fitted cell-killing curve with a large enough effect; inconclusive = small, poorly fitted or top-dose-only effect, or effect the other way; inactive = flat fitted curve, though single readings scatter. Potencies of inconclusive entries are left out as doubtful fits.
Assay: qHTS for induction of synthetic lethality in tumor cells producing 2HG: qHTS for the HT-1080-NT fibrosarcoma cell line;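 also: NT is the 2HG producing partner of a matched IDH1 knockdown line; nearly all actives have a fitted effect of over 55% in size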;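 as to activity, negative = less viability: 0% = DMSO-treated cells and -100% = media-only wells without cells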
Details: HT-1080-NT fibrosarcoma viability, CellTiter-Glo ATP luminescence, 48 h; activity, negative = less viability: at 46.1 µM (top of the series) unless noted
Outline: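 Toxicity toward the 2HG-producing NT line was scored as %Activity, normalised to DMSO and no-cell wells, from CellTiter-Glo luminescence after 48 hours' treatment.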
Potency is read from the fitted curve at half-maximal effect; tags tell the direction and shape of the fitted curve.

SMILES | Potency | activity, negative = less viability
COc1ccc(-c2nc3c(C)cc(Br)cn3c2Cc2ccc(C)cc2)cc1OC | inconclusive [cytotoxic, single point] | –
CCN(CC)C(=O)c1cccc(-c2csc(C(C)(NC(C)=O)c3ccc(OC)cc3)n2)c1 (stereo not drawn) | – | inactive: 4.16%
CCCNS(=O)(=O)/C=C/c1ccccc1 | – | inactive: 13.8%
O=C(O)c1cn(C2CC2)c2cc(N3CCN(S(=O)(=O)c4ccc5c(c4)OCCO5)CC3)c(F)cc2c1=O | inconclusive [cytotoxic, single point] | –
OC(c1ccccc1)(c1nc(-c2ccc3ccccc3c2)cs1)C(F)(F)F (stereo not drawn) | inconclusive [cytotoxic, single point] | –
C=CCSc1nc2ccccc2n1C(=O)/C=C/c1ccc(OC)c(OC)c1 | inconclusive [cytotoxic, partial curve, poor fit] | –
COc1ccc(C(N)c2csc(Nc3nncc4ccccc34)n2)cc1 (stereo not drawn) | inconclusive [cytotoxic, single point] | –
C[C@@H]1CNC(=O)c2c(C(=O)N[C@@H](Cc3c[nH]c4ccccc34)C(=O)OC(C)(C)C)ncn21 | – | inactive: -9.35%
O=C(NCCNc1ccc([N+](=O)[O-])cc1)c1cccc2c(Br)cccc12 | inconclusive [cytotoxic, single point] | –
COc1ccc(CCNC(=O)c2ccc(CNS(=O)(=O)c3cc(C)ccc3C)cc2)cc1OC | – | inactive: -26.1%
CC(NC(=O)c1sc2cc([N+](=O)[O-])ccc2c1Cl)C(C)(C)C (stereo not drawn) | – | inactive: 2.59%
O=C(CSc1ccccc1)Nc1ccc(-c2nc3ccccc3[nH]2)cc1 | active: 13 µM | –
Brc1ccc(/C=N/Nc2ccc3ccccc3n2)cc1 | inconclusive [cytotoxic, single point] | –
CCC(C)(C)n1nnnc1C(c1cc(OC)c(OC)c(OC)c1)N1CCN(c2ccccc2)CC1 (stereo not drawn) | – | inactive: 5.89%
CCOc1ccc(NC(=O)CSc2nc(NS(=O)(=O)c3ccc(C)cc3)cc(=O)[nH]2)cc1 | – | inactive: 17.6%
COc1ccc(CCN2C(=O)CCC3=C2CCCC3=O)cc1OC | inconclusive [rising, single point] | –
COCCN(C(=S)Nc1ccc(C)cc1C)C(C)c1ccco1 (stereo not drawn) | inconclusive [rising, single point] | –
CCCS/C(N)=N/N=C/c1ccccc1O | – | inactive: -4.22%
CCCOC(=O)c1ccc(Oc2cn[nH]c2-c2ccc(OCC)cc2O)cc1 | inconclusive [cytotoxic, single point] | –
O[C@@H]1CN(C2CCN(Cc3ccccc3)CC2)CC[C@H]1N1CCCCCC1 | inconclusive [cytotoxic, partial curve, poor fit] | –
O=C(Nc1ccn(-c2ccccc2)n1)c1ccc(Cl)cc1 | – | inactive: -3.3%
CSc1ccc(CN(C)CC(=O)Nc2c(F)cccc2F)cc1 | – | inactive: -3.81%
Cc1ccc(N(CC(O)CON=C2c3ccccc3-c3ccccc32)S(C)(=O)=O)cc1 (stereo not drawn) | inconclusive [cytotoxic, single point] | –
COc1ccc2nc(C)cc(Nc3ccccc3O)c2c1 | – | inactive: -9.8%

SMILES | Potency | activity, negative = less viability
CC1CCN(C(=O)c2ccc(-c3ccccc3Cl)o2)CC1 | – | inactive: 0.593%
O=C(NCc1ccco1)C(=O)c1cn(CC(=O)N2CCCCC2)c2ccccc12 | – | inactive: 11.8%
COc1cc(OC)nc(Nc2nc(C(N)Cc3ccc(C(F)(F)F)cc3)cs2)n1 (stereo not drawn) | active: 18.4 µM | –
O=C1c2ccc(-c3ccc4c(c3)C(=O)N(CCO)C4=O)cc2C(=O)N1CCO | – | inactive: 0%
O=C1OCC(CO)(CO)N=C1NNc1cc(Cl)ccc1Cl | inconclusive [cytotoxic, single point] | –
COc1cccc(C(O)c2ncc(-c3cccc4ccccc34)[nH]2)c1 (stereo not drawn) | inconclusive [cytotoxic, single point] | –
CC(C)(C)NC(=O)NC(=O)COC(=O)C1CC(=O)N(Cc2ccccc2)C1 (stereo not drawn) | – | inactive: 7.35%
COc1ccc(C2CCCN2CC(O)COc2ccccc2C(C)C)cc1 (stereo not drawn) | active: 20.6 µM | –
O=C(COc1ccc(Cl)cc1Cl)NNC(=S)NC(=O)c1ccco1 | – | inactive: -4.13%
CCCCc1ccc(Nc2nc(CCC)cc(=O)[nH]2)cc1 | active: 20.6 µM | –
Cc1cc(C(C)(C)CC(C)(C)C)ccc1OCCOCC[N+](C)(C)Cc1ccccc1 | – | inconclusive: -94.3%
O=C(Nc1ccc(S(=O)(=O)N2CCCCC2)cc1)c1ccc(F)cc1 | inconclusive [cytotoxic, single point] | –
Cc1cc(S(=O)(=O)NCCC2=CCCCC2)ccc1Br | – | inactive: -5.11%
Cc1nc(NCCN2CCOCC2)c2oc3ccccc3c2n1 | – | inactive: -0.963%
COC(=O)c1c(C)oc2ccc(NS(=O)(=O)c3cc(OC)ccc3OC)cc12 | inconclusive [cytotoxic, single point] | –
COCCN1C[C@@H](CO)O[C@@H](n2cnc3c(N4CCCC4)ncnc32)C1 | inconclusive [rising, partial curve] | –
O=[N+]([O-])c1cnc(Sc2ccncn2)c([N+](=O)[O-])c1 | – | inactive: -2.02%
Nc1nonc1-n1nnc(C(=O)N/N=C/c2ccc(OCc3ccc(F)cc3)cc2)c1COc1ccccc1 | active: 18.4 µM | –
COc1ccc(NC2=NCC(Cc3ccc(Br)cc3)S2)cc1 (stereo not drawn) | inconclusive [cytotoxic, single point] | –
CN1CCCN(c2cc(-c3ccc4ccccc4c3)nc3ccnn23)CC1 | inconclusive [rising, partial curve] | –
CC1=C(C(=O)OCC(C)C)C(c2cc3c(cc2Br)OCO3)NC(=O)N1C (stereo not drawn) | inconclusive [cytotoxic, single point] | –
Cc1ccc2nc(-c3ccccc3)c(Cc3ccccc3C(F)(F)F)n2c1 | inconclusive [cytotoxic, single point] | –
O=C(CCC(=O)N1CCN(c2cccc(Cl)c2)CC1)c1cccs1 | inconclusive [cytotoxic, partial curve, poor fit] | –
CCCCN(CC)CCCNC(=O)c1cc2c(=O)[nH]c3ccccc3c2s1 | inconclusive [cytotoxic, single point] | –

— PubChem BioAssay AID686970 (National Center for Advancing Translational Sciences (NCATS), 2013)
